# The whole screen tested about 390,000 compounds, of which about 2,200 (0.56%) were called active. The shares of active, inactive and inconclusive entries below differ from those in the screen. Calls follow the shape of the dose curve; as a rule, active = well fitted inhibition curve with a large enough effect; inconclusive = small, poorly fitted or top-dose-only effect; inactive = no such curve, though single readings can be large or run the other way. A potency beside an inconclusive call is a rough fit, not a confirmed value.
# Target: Chromobox protein homolog 1 (Homo sapiens) (UniProt P83916)
# UniProt P83916, sequence (P83916 whole entry, looked up): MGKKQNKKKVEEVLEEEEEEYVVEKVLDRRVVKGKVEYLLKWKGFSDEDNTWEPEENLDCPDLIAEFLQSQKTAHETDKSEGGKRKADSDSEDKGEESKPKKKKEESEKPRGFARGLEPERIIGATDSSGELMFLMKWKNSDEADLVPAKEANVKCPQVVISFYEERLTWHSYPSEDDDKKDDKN
# Experiment: HTS for Inhibitors of HP1-beta Chromodomain Interactions with Methylated Histone Tails; also: nearly all actives have a fitted effect of over 70% in size
# Settings: AlphaScreen HP1-beta / biotin-H3K9me3 peptide binding; series mostly up to 114 µM
# Outline: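 AlphaScreen: HP1-beta (50 nM) preformed 30 min with biotin-H3(1-18)K9me3 peptide (50 nM) in PBS pH 7.4, 0.01% Tween-20. Compound added for 30 min at RT, then streptavidin donor/nickel chelate acceptor beads (10 ug/mL) for 30 min.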
# Potency is read from the fitted curve at half-maximal effect; tags tell the direction and shape of the fitted curve.
row,SMILES,Potency
1,O=C/C(=C\Nc1ccc(Cl)cn1)c1nc2cc(Cl)ccc2o1,inactive
2,CSc1ccc(CN2CCN(Cc3ccc([N+](=O)[O-])cc3)CC2)cc1,"inconclusive: 50.1 µM [inhibitor, partial curve]"
3,COc1ccc(CCN2CC(C(=O)OC(C)C(=O)Nc3cccc(Cl)c3)CC2=O)cc1OC (stereo unspecified),"inconclusive: 31.6 µM [inhibitor, single point]"
4,CCc1cc(-c2n[nH]c(=S)n2N)n(C)n1,"inconclusive: 100 µM [inhibitor, single point]"
5,N#CC(C#N)=CC1=C2OC(c3ccccc3)=CC(c3ccccc3)=C2CCC1,active: 2.82 µM
6,Cc1noc(C)c1NC(=O)Nc1ccc2c(c1)C(=O)N([C@H](C)CO)C[C@H](C)[C@H](CN(C)C)O2,inactive
7,Cc1ccc(N/N=C(\C#N)C(N)=S)c(C)c1,"inconclusive: 22.4 µM [inhibitor, single point]"
8,CCN1CCc2c(sc(NC(=S)NC(=O)c3ccco3)c2C(N)=O)C1,"inconclusive: 11.2 µM [inhibitor, full curve]"
9,CCC(C)/C=C/C1=CC2=C(Cl)C(=O)C3(C)OC(=O)C(C(=O)C(C)C(C)O)C3C2=CO1 (stereo unspecified),inactive
10,Cc1cc(C)c2c(c1)C1C=CCC1C(C(=O)O)N2 (stereo unspecified),active: 20 µM
11,Cc1cc(=O)oc2c(C)c(OCC(=O)N3CCC(C(=O)O)CC3)ccc12,inactive
12,CC1(C)CCC(=NNC(N)=S)CC1,"inconclusive: 3.98 µM [inhibitor, partial curve, poor fit]"
13,COc1ccc(-n2c(C)c(C)c3c(NCCO)ncnc32)cc1,"inconclusive: 89.1 µM [inhibitor, single point]"
14,CC1=NN(c2ccc(C)c(C)c2)C(=O)/C1=C\C=C\c1ccc([N+](=O)[O-])o1,"inconclusive: 12.6 µM [inhibitor, partial curve]"
15,Clc1cccc(CN2CCC3CC2c2cc(N4CCCCC4)ccc23)c1 (stereo unspecified),"inconclusive: 25.1 µM [inhibitor, full curve]"
16,COc1ccc(OC)c(NC(=O)c2nc(S(=O)(=O)Cc3ccccc3)ncc2Cl)c1,inactive
17,Nc1nc(-c2ccccc2Cl)cs1,"inconclusive: 39.8 µM [inhibitor, partial curve]"
18,O=[N+]([O-])c1cc(-c2cccnc2)n[nH]1,inactive
19,c1ccc(CNC2=NCCCC2)cc1,"inconclusive: 44.7 µM [inhibitor, partial curve, poor fit]"
20,Cc1ccc(C(=O)NCc2ccncc2)cc1S(=O)(=O)Nc1cccc(C)c1C,inactive
21,CCCCC(=O)Nc1nc(C)c(-c2csc(Nc3cc(OC)ccc3OC)n2)s1,"inconclusive: 20 µM [inhibitor, partial curve, poor fit]"

# Source: PubChem BioAssay AID540317 (National Center for Advancing Translational Sciences (NCATS), 2011)
